This is one part of the list.
system: T1, C. trachomatis L2/434/Bu expressing GFP (CTL2-GFP); parameters: species or system HeLa; C. trachomatis total inclusion area by high-content imaging, normalised to DMSO; conditions: total inclusion area; 28.5 h, 10 µM; inhibitor
T1 construct: L2/434/Bu GFP intracellular growth in HeLa cells
How it was run: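 High-content imaging followed the bulk GFP/resorufin measurement: fixed, Hoechst-stained cells were scored for GFP inclusions and host nuclei per well. Total inclusion area and count served as growth proxies, nuclei number as the viability proxy. MIC calculation matched the bulk assay.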

| SMILES | % of control remaining |
| --- | --- |
| COc1ccc(-c2cnc3[nH]c(=O)n([C@H](CO)C(C)C)c3n2)c(OC)c1OC [CBK065008] | 119.408 |
| COc1cccc(-n2ccn(C(=O)CCC3CCCC3)c2=O)c1 [CBK106625] | 86.8363 |
| C=CCn1c(SCc2nnc(-c3ccccc3)o2)nnc1C(O)c1ccccc1 (stereo not shown) [CBK267368] | 91.4685 |
| COc1ccc(C(=O)N(CCC(C)C)Cc2nc(C)c(C)n2Cc2ccccc2Cl)c(OC)c1 [CBK093441] | 112.228 |
| OCCN1CCN(c2nc(-c3cccnc3)cn3ccnc23)CC1 [CBK037887] | 101.607 |
| CN(CC(=O)Nc1ccccc1N1CCNCC1)C(=O)c1ccccc1 [CBK028287T] | 55.9171 |
| CCn1ncnc1CN(c1cccc(CO)c1)C1Cc2ccccc2C1 [CBK304173] | 36.1517 |
| Cc1nc(NC(=O)c2cccc(NC(=O)C3CCCO3)c2)sc1-c1n[nH]c(=S)n1C (stereo not shown) [CBK295341] | 58.6022 |
| Nn1cnn2c(SCC(=O)c3ccccc3)nnc12 [CBK263194] | 84.3271 |
| Cn1nccc1C(=O)NC(Cc1cccs1)c1ccccn1 (stereo not shown) [CBK285207] | 80.309 |
| NCCN(C(=O)CCc1cc(C(F)(F)F)cc(C(F)(F)F)c1)c1ccc2c(c1)OCO2 [CBK000701T] | 54.9544 |
| CCOc1ccc(-n2c(C)cc(C(=O)NS(=O)(=O)c3ccc(C)cc3)c2C)cc1 [CBK296084] | 107.296 |
| Fc1ccc(-n2c(C3CC3)n[nH]c2=S)cc1Cl [CBK288364] | 79.9709 |
| Cc1cc2c(=O)n(CC(=O)NCc3ccccn3)cnc2s1 [CBK071900] | 53.8526 |
| Cc1cc(C)n(C2CCN(Cc3nc4ccccc4n3C)CC2)n1 [CBK281621] | 105.958 |
| Cc1cccc(-n2ncc3c(=O)n(CC(=O)Nc4ccccc4)cnc32)c1C [CBK287693] | 98.7339 |
| Cc1ccc2c(c1)cc(C)c1nn(CC(=O)NC(C)C)c(=O)n12 [CBK283874] | 96.0122 |
| Nc1ncc(-c2cccc(O)c2)nc1N1CCC(C(=O)O)CC1 [CBK063405] | 124.029 |
| CCN(CC)c1c(C)nc2ccc(C(=O)NCCN3CCNC3=O)cn12 [CBK145977] | 56.3478 |
| CCN(CC)C(=O)C1CCCN(C2CCN(C(=O)c3c4ccccc4cc4ccccc34)CC2)C1 (stereo not shown) [CBK066966] | 92.6685 |
| Cc1ccc(C(C)NC(=O)C2CCCN(S(C)(=O)=O)C2)c(C)c1 (stereo not shown) [CBK304349] | 70.3559 |
| N#Cc1nc(-c2ccccc2F)oc1NCCCN1CCOCC1 [CBK265881] | 95.0742 |
| O=S(=O)(c1ccccc1)c1nc(-c2ccco2)oc1NCCCn1ccnc1 [CBK267670] | 102.228 |
| CC(C)(C)OC(=O)N1CCN(c2ccnc(N)n2)CC1 [CBK003529] | 102.61 |
| COc1ccc(-c2noc(CSc3nnc(-c4c[nH]c5ccccc45)n3C)n2)cc1OC [CBK268644] | 120.843 |
| O=C(CN1C2CCC1CC(O)(c1ccco1)C2)Nc1ccccc1F (stereo not shown) [CBK284109] | 79.4765 |
| O=C(c1cccc(O)c1)N1CCN(Cc2cn3ccsc3n2)CC1 [CBK305275] | 62.987 |

| SMILES | % of control remaining |
| --- | --- |
| COc1ccc2[nH]cc(CC(=O)Nc3cc(C)nc4ccccc34)c2c1 [CBK122732] | 86.8493 |
| Cc1[nH]nc2c1C(c1ccc(Cl)cc1)N(CCc1c[nH]c3ccccc13)C2=O (stereo not shown) [CBK287919] | 104.713 |
| COc1cc(CNCc2cccnc2)ccc1OCc1cccs1 [CBK270082C] | 80.8003 |
| CSc1nsc(SCC(=O)Nc2ccccc2C#N)n1 [CBK269826] | 86.8303 |
| Cc1c(-c2ccccc2)n[nH]c1C(=O)NCCCc1ccccn1 [CBK282445] | 116.48 |
| Cc1ccc(N2C(=O)c3ccc(S(=O)(=O)c4cccc(C(=O)O)c4)cc3C2=O)c(C)c1 [CBK262783] | 105.778 |
| O=C(Nc1ccccc1Cl)C1CCCN1S(=O)(=O)c1ccc(F)cc1 (stereo not shown) [CBK110161] | 107.694 |
| N#C/C(=C/c1ccc(Sc2nc3ccccc3[nH]2)o1)c1ccc(C(=O)O)cc1 [CBK269141] | 79.3812 |
| O=C1NCC2(CCN(Cc3ccccc3)CC2)Oc2ccccc21 [CBK285323] | 76.0938 |
| Cc1cccc(OCCn2cncc2-c2cnn(C)c2)c1C [CBK281497] | 81.7459 |
| CCOC(=O)c1cnn2c(O)cc(CN3CCCc4ccccc43)nc12 [CBK305694] | 123.537 |
| O=c1c([N+](=O)[O-])c[nH]c2nc(-c3ccncc3)nn12 [CBK288531N] | 88.3565 |
| O=C(O)c1cccc(S(=O)(=O)N(CCO)CCO)c1 [CBK263221] | 95.8625 |
| Cc1cc(C(=O)N2CCN(Cc3ccc(F)cc3Cl)CC2)no1 [CBK268126] | 111.553 |
| CC1CCCCC1NC(=O)c1ncoc1-c1cccs1 (stereo not shown) [CBK283973] | 75.3441 |
| Cn1c(=O)c2[nH]c(N3CCCNCC3)nc2n(C)c1=O [CBK270030] | 103.645 |
| CC1CCN(S(=O)(=O)c2ccc(C(=O)NC(C(=O)O)C(C)O)cc2)CC1 (stereo not shown) [CBK297151] | 79.4292 |
| CC(NC(=O)Cc1cccc(F)c1)c1nc2cccnc2n1C(C)C (stereo not shown) [CBK283831] | 97.46 |
| CC(NC(=O)OC(C)(C)C)c1nnc(SCC(=O)N(C)C)o1 (stereo not shown) [CBK269932] | 106.66 |
| O=c1cc(N2CCN(CC3CCOC3)CC2)c(-c2ccccc2)n[nH]1 (stereo not shown) [CBK306957] | 53.316 |
| O=C(O)/C=C/c1cccc(-c2cn3ccnc3c(N3CCN(c4ccncc4)CC3)n2)c1 [CBK066326] | 113.003 |
| O=[N+]([O-])c1ccc2c(ccn2C2CC(O)C(CO)O2)c1 (stereo not shown) [CBK201163] | 104.217 |
| COC(=O)COc1nccnc1-c1ccc(SC)cc1 [CBK106806] | 85.633 |
| Cc1cc(N2CCN(C(=O)Cc3cccs3)CC2)nc(C(C)C)n1 [CBK305562] | 65.4522 |
| CC(C)[C@H]1CN(Cc2ccco2)CCN1C(=O)N1CCCCC1 [CBK284272] | 71.7124 |
| COc1nccnc1NS(=O)(=O)c1ccc(Nc2c([N+](=O)[O-])cc([N+](=O)[O-])c3nonc23)cc1 [CBK261441] | 20.298 |
| CC(C)C(=O)Nc1ccc2c(-c3ccccc3)ccnc2n1 [CBK073671] | 110.391 |

| SMILES | % of control remaining |
| --- | --- |
| Nc1ncc(-c2cccc3ncccc23)nc1N1CCC[C@@H]1CO [CBK063441] | 120.345 |
| O=C(O)C1CCCCN1S(=O)(=O)c1ccc(Br)cc1 (stereo not shown) [CBK101789] | 78.2873 |
| O=C(Nc1cccc(Cl)c1Cl)c1cccs1 [CBK057672] | 44.5393 |
| Cc1cc(F)c(S(N)(=O)=O)cc1NC(=O)c1cccc(Br)c1 [CBK051488] | 76.0738 |
| CC(C)(C)OC(=O)N1CCC(C2OCc3cc(-c4ccc(C(=O)N5CCOCC5)o4)ccc3O2)CC1 (stereo not shown) [CBK173615] | 81.369 |
| Cc1nnc(N/N=C\c2c(Cl)cccc2Cl)[nH]c1=O [CBK027921] | 81.6417 |
| C#CCN1CC[C@]2(c3ccc(OC)c(OC)c3)CC[C@@H](NC(=O)Nc3ccc(F)c(F)c3)C[C@H]12 [CBK056657] | 51.1516 |
| COc1ccc2[nH]cc(CCNC(=O)c3cc(-c4cccc(NC(C)=O)c4)cnc3N(C)S(C)(=O)=O)c2c1 [CBK076599] | 109.766 |
| O=C(CSc1oc(-c2ccco2)nc1S(=O)(=O)c1ccccc1)c1ccccc1 [CBK268424] | 111.592 |
| CC(=O)Nc1ccc(CN(C)c2c(C)nc3ccc(C(=O)N(C)CCN(C)C)cn23)cc1 [CBK147107] | 105.572 |
| COCc1nnc(Sc2nccnc2N2CCCC2)s1 [CBK093736] | 109.169 |
| CC(NC(=O)N(C)Cc1ccc2ccccc2n1)c1nncn1C(C)C (stereo not shown) [CBK307197] | 39.0703 |
| O=C(NCc1ccccc1)c1cccc(NC(=O)c2cc(-c3ccccn3)nc3ccc(Cl)cc23)c1 [CBK267768] | 124.386 |
| COCCCNC(=O)c1cnn2c(C)c(Cc3cccc(F)c3)c(C)nc12 [CBK162126] | 52.1694 |
| CC(CCc1ccccc1)NC(=O)C(C)Sc1nnc(-c2cccs2)n1C1CC1 (stereo not shown) [CBK297131] | 92.622 |
| CC(=O)Nc1ccc2nc(Nc3nc4c(F)cc(F)cc4s3)sc2c1 [CBK287489] | 105.587 |
| COc1ccc(CCn2cncc2-c2cnn(C)c2)cc1C [CBK281457] | 96.6301 |
| CNC(=O)c1sc2ccccc2c1C1CCN(Cc2ccc(OC)c(OC(C)C)c2)C1 (stereo not shown) [CBK285928] | 95.0941 |
| CC(=O)NCCC(=O)Nc1cc(C)ccc1C [CBK306115] | 28.8448 |
| COc1ccc2c(Cl)c(C(=O)NCCc3ccc(S(N)(=O)=O)cc3)sc2c1 [CBK268120] | 107.62 |
| CCc1nc(CN2CCCC(NC(C(N)=O)c3ccccc3)C2)no1 (stereo not shown) [CBK305348] | 40.7274 |
| COCCNc1nc(-c2ccc3c(c2)OCO3)ccc1C(=O)N(C)CCN(C)C [CBK105915] | 99.1351 |
| CCN(CC)CC(O)Cn1c(-c2cccc([N+](=O)[O-])c2)nc(=S)c2c1CCCC2 (stereo not shown) [CBK265700] | 100.192 |
| O=C(NCCCN1CCCCC1)C1CC(=O)N(Cc2ccco2)C1 (stereo not shown) [CBK305145] | 87.2859 |
| O=C(Cc1ccc(Cl)c(Cl)c1)N1CCC2(CCN(C(=O)c3cc(F)c(F)cc3F)C2)C1 (stereo not shown) [CBK131386] | 91.2532 |

Source: PMC12040169 (PLOS Biology, 2025)
